Our source for the relative growth values is the supplement of paper PMC9446081.

Hit rate of the full screen: of about 39,000 compounds, about 220 (0.56%) showed activity. The list shows a part of the results.
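Also: static incubation at 37 °C against the wild-type strain, values averaged over two biological replicates.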

For the assay, the system named is Escherichia coli K-12 BW25113. Briefly: relative growth (OD600 normalised to plate interquartile mean) (fraction); higher = less growth inhibition, active = 0.2 or less. Particulars: 50 µM; LB; incubation time: overnight (16-24 h).
As to `C[C@H](CO)N1C[C@H](C)[C@@H](CN(C)C(=O)Nc2cccc3ccccc23)Oc2ccc(NC(=O)Cc3cn(C)c4ccccc34)cc2C1=O`, the relative growth was inactive: 1.02.

In the case of `Cc1ccc(S(=O)(=O)Nc2ccc3c(c2)CC(=O)N([C@@H](C)CO)C[C@H](C)[C@H](CN(C)Cc2ccc(-c4ccccc4)cc2)O3)cc1`, the relative growth is inactive: 1.01. For the molecule `COc1ccc(C2=NS(=O)(=O)N(C)C(C(=O)N3CCC(C(N)=O)CC3)=C2)cc1`, the relative growth is inactive: 1. In the case of `C[C@H](CO)N1C[C@H](C)[C@@H](CN(C)S(=O)(=O)c2cn(C)cn2)Oc2ccc(NC(=O)CCCCCC(=O)Nc3ccccc3N)cc2CC1=O`, the relative growth is inactive: 0.993. As for `NC/C=C\C(=O)O`, the figure is inactive: 0.977.

With `COc1ccc(NC(=O)Nc2ccc3c(c2)C(=O)N([C@@H](C)CO)C[C@H](C)[C@@H](CN(C)S(=O)(=O)c2ccc(OC)cc2)OCCCC[C@@H](C)O3)cc1`, the relative growth is inactive: 1.04. In the case of `CC(=O)N1[C@@H]2Cn3c(cccc3=O)[C@H]1[C@@H](C(=O)N1CCc3ccccc3C1)[C@@H]2CO` it was inactive: 1; in that of `C[C@@H]1CN([C@H](C)CO)C(=O)c2cccc(NC(=O)c3ccncc3)c2O[C@@H]1CN(C)Cc1ccc2c(c1)OCO2`, inactive: 0.974. `C[C@H](CO)N1C[C@H](C)[C@H](CN(C)S(=O)(=O)c2ccc(F)cc2)Oc2c(NC(=O)Nc3cccc4ccccc34)cccc2C1=O`: the relative growth was inactive: 1.

`C[C@@H]1CN([C@@H](C)CO)C(=O)c2cc(C#CCc3ccccc3)cnc2O[C@@H]1CN(C)C(=O)C1CCOCC1`: the relative growth is inactive: 0.97. In the case of `CCCCC[C@@H](O)[C@@H]1C(=O)O[C@H](C)[C@H](O)/C=C/C=C/C=C/C=C/C=C(\C)[C@H](O)C[C@H](O)C[C@H](O)C[C@H](O)C[C@H](O)C[C@H](O)C[C@@H]1O` it was inactive: 0.99; in that of `Cc1noc(C)c1NC(=O)Nc1ccc2c(c1)C(=O)N([C@@H](C)CO)C[C@@H](C)[C@@H](CN(C)S(=O)(=O)c1cccs1)OCCCC[C@@H](C)O2`, inactive: 1.01. As for `CCCCC1=NC2(CCCC2)C(=O)N1Cc1ccc(-c2ccccc2S(=O)(=O)Nc2noc(C)c2C)c(COCC)c1`, the figure is inactive: 1; as for `CC12CCC3c4ccc(O)cc4CCC3C1CCC2=O` (configuration not stated), inactive: 1.11.

As to `Cn1cnc(S(=O)(=O)N2C[C@@H](O)COC[C@H]3O[C@@H](CC(=O)N4CCN(c5ccccc5)CC4)CC[C@@H]32)c1`, the relative growth was inactive: 1.02. In the case of `COc1ccc(CN(C)C[C@@H]2Oc3c(NS(=O)(=O)c4cn(C)cn4)cccc3C(=O)N([C@H](C)CO)C[C@@H]2C)cc1` it was inactive: 0.994; in that of `CN1CCN(C(=O)C[C@H]2CC[C@H](NC(=O)Cc3ccccn3)[C@@H](CO)O2)CC1`, inactive: 1.01; in that of `CO[C@@H]1CN(C)C(=O)c2cc(NS(C)(=O)=O)ccc2OC[C@@H](C)N(C(=O)C2CCCCC2)C[C@@H]1C`, inactive: 0.983. With `COc1ccc(S(=O)(=O)N(C)C[C@@H]2Oc3ccc(NS(=O)(=O)c4ccccc4)cc3CC(=O)N([C@@H](C)CO)C[C@H]2C)cc1`, the relative growth was inactive: 1.01. As for `C[C@@H]1CN([C@H](C)CO)C(=O)c2cc(NC(=O)Nc3ccc4c(c3)OCO4)ccc2O[C@@H](C)CCCCO[C@H]1CN(C)Cc1ccccc1`, the figure is inactive: 1.03; as for `C[C@@H]1CCCCO[C@@H](CN(C)C(=O)NC2CCCCC2)[C@H](C)CN([C@@H](C)CO)C(=O)c2cc(NC(=O)NC3CCCCC3)ccc2O1`, inactive: 1.01.

On to `COCC(=O)Nc1ccc2c(c1)[C@H]1C[C@H](CC(=O)N3CCOCC3)O[C@H](CO)[C@H]1O2`, for which the relative growth is inactive: 0.995.

For `C[C@@H]1CCCCO[C@@H](CN(C)S(=O)(=O)c2cccs2)[C@@H](C)CN([C@H](C)CO)C(=O)c2cc(NC(=O)CCC(F)(F)F)ccc2O1`, the relative growth is inactive: 0.962. As to `C=CC[C@H](CC(=O)NCCO)C(=O)NC[C@H](OC(=O)[C@@H](CC=C)CC(=O)OC(C)(C)C)c1ccccc1`, the relative growth was inactive: 1.01. As for `COc1ccc(S(=O)(=O)N(C)C[C@@H]2OCCCC[C@H](C)Oc3ccc(NC(=O)Nc4ccc(F)cc4)cc3C(=O)N([C@H](C)CO)C[C@@H]2C)cc1`, the relative growth was inactive: 1.05.

Take `O=C(C[C@@H]1C[C@@H]2c3cc(NS(=O)(=O)c4ccc(F)cc4)ccc3O[C@@H]2[C@H](CO)O1)NC1CCCC1`: the relative growth is inactive: 0.992. Turning to `COc1ccc(NC(=O)Nc2ccc3c(c2)C(=O)N([C@H](C)CO)C[C@@H](C)[C@@H](CN(C)CC2CCCCC2)OCCCC[C@H](C)O3)cc1`, the relative growth was inactive: 1.06. As for `C[C@@H]1CN([C@H](C)CO)S(=O)(=O)c2ccc(C#Cc3ccncc3)cc2O[C@@H]1CN(C)C(=O)c1ccncc1`, the figure is inactive: 0.958. On to `Cc1nnsc1-c1onc(C)c1C(N)=O`, for which the relative growth is inactive: 0.866. As for `O=C1[C@@H]2[C@H](C(=O)N1c1ccccc1)C13COC[C@H](c4ccccc4)N1C(=O)C2(C(=O)NCc1ccccc1)O3` (some centres not stated), the relative growth was inactive: 1.02. For `C[C@H](CO)N1C[C@H](C)[C@H](CN(C)C(=O)Nc2ccc(F)cc2)Oc2ncc(-c3cc4ccccc4o3)cc2C1=O`, the relative growth is inactive: 0.977. `COc1ccc(CN(C)C[C@H]2OCCCC[C@@H](C)Oc3ccc(NC(=O)Nc4ccc(OC)cc4)cc3C(=O)N([C@H](C)CO)C[C@@H]2C)cc1`: the relative growth was inactive: 0.938. For `C[C@@H]1CN([C@H](C)CO)C(=O)c2cc(NC(=O)CCN3CCOCC3)ccc2O[C@H]1CN(C)C(=O)Nc1ccc2c(c1)OCO2`, the relative growth was inactive: 0.988. In the case of `C[C@H](CO)N1C[C@H](C)[C@@H](CN(C)S(=O)(=O)c2cn(C)cn2)OCCCC[C@H](C)Oc2ccc(NS(=O)(=O)c3ccc(F)cc3)cc2C1=O` it was inactive: 1.02; in that of `C[C@@H]1CCCCO[C@@H](CN(C)C(=O)C2CCCCC2)[C@@H](C)CN([C@@H](C)CO)C(=O)c2cc(NS(=O)(=O)c3ccc(Cl)cc3)ccc2O1`, inactive: 0.986.

On to `CC(C)NC(=N)NC(=N)Nc1ccc(Cl)cc1.Cl`, for which the relative growth was inactive: 0.965. Consider `O=C(C[C@@H]1C=C[C@@H](NC(=O)c2cccnc2)[C@@H](CO)O1)NCc1ccncn1`, for which the relative growth was inactive: 0.965.
